{"source": "paper PMC9911399", "about": "“Two distinct binding modes provide the RNA-binding protein RbFox with extraordinary sequence specificity”", "binders": {"B1": {"name": "AAGACGC (DNA:RNA)", "RNA": "GGGAGACCGGAAUUCAGAUUGUCCAAGACGCUUAAAUCCCGUCGUAGCCACCA", "DNA 1": "CAATCTGAATTCCGGTCTCCC", "DNA 2": "TGGTGGCTACGACGGGATT"}, "B2": {"name": "UUCGAAG (DNA:RNA)", "RNA": "GGGAGACCGGAAUUCAGAUUGUCCUUCGAAGUUAAAUCCCGUCGUAGCCACCA", "DNA 1": "CAATCTGAATTCCGGTCTCCC", "DNA 2": "TGGTGGCTACGACGGGATT"}, "B3": {"name": "AAUGGUU (DNA:RNA)", "RNA": "B1 RNA with G27U, A28G, C29G, G30U, C31U", "DNA 1": "CAATCTGAATTCCGGTCTCCC", "DNA 2": "TGGTGGCTACGACGGGATT"}, "B4": {"name": "UGAACGG (DNA:RNA)", "RNA": "B1 RNA with A25U, A26G, G27A, C31G", "DNA 1": "CAATCTGAATTCCGGTCTCCC", "DNA 2": "TGGTGGCTACGACGGGATT"}, "B5": {"name": "UGGGCAU (DNA:RNA)", "RNA": "B2 RNA with U26G, C27G, A29C, G31U", "DNA 1": "CAATCTGAATTCCGGTCTCCC", "DNA 2": "TGGTGGCTACGACGGGATT"}, "B6": {"name": "CGACACA (DNA:RNA)", "RNA": "B2 RNA with U25C, U26G, C27A, G28C, A30C, G31A", "DNA 1": "CAATCTGAATTCCGGTCTCCC", "DNA 2": "TGGTGGCTACGACGGGATT"}, "B7": {"name": "UUGUAUG (DNA:RNA)", "RNA": "B2 RNA with C27G, G28U, A30U", "DNA 1": "CAATCTGAATTCCGGTCTCCC", "DNA 2": "TGGTGGCTACGACGGGATT"}, "B8": {"name": "GUUGCCC (DNA:RNA)", "RNA": "B1 RNA with A25G, A26U, G27U, A28G, G30C", "DNA 1": "CAATCTGAATTCCGGTCTCCC", "DNA 2": "TGGTGGCTACGACGGGATT"}, "B9": {"name": "CUAUAAC (DNA:RNA)", "RNA": "B2 RNA with U25C, C27A, G28U, G31C", "DNA 1": "CAATCTGAATTCCGGTCTCCC", "DNA 2": "TGGTGGCTACGACGGGATT"}, "B10": {"name": "CACCCCU (DNA:RNA)", "RNA": "B1 RNA with A25C, G27C, A28C, G30C, C31U", "DNA 1": "CAATCTGAATTCCGGTCTCCC", "DNA 2": "TGGTGGCTACGACGGGATT"}, "B11": {"name": "UCCCUGA (DNA:RNA)", "RNA": "B2 RNA with U26C, G28C, A29U, A30G, G31A", "DNA 1": "CAATCTGAATTCCGGTCTCCC", "DNA 2": "TGGTGGCTACGACGGGATT"}, "B12": {"name": "GGGCACC (DNA:RNA)", "RNA": "B1 RNA with A25G, A26G, A28C, C29A, G30C", "DNA 1": "CAATCTGAATTCCGGTCTCCC", "DNA 2": "TGGTGGCTACGACGGGATT"}, "B13": {"name": "CGGACUU (DNA:RNA)", "RNA": "B1 RNA with A25C, A26G, G30U, C31U", "DNA 1": "CAATCTGAATTCCGGTCTCCC", "DNA 2": "TGGTGGCTACGACGGGATT"}, "B14": {"name": "UACUCGC (DNA:RNA)", "RNA": "B1 RNA with A25U, G27C, A28U", "DNA 1": "CAATCTGAATTCCGGTCTCCC", "DNA 2": "TGGTGGCTACGACGGGATT"}, "B15": {"name": "GUUAAGA (DNA:RNA)", "RNA": "B1 RNA with A25G, A26U, G27U, C29A, C31A", "DNA 1": "CAATCTGAATTCCGGTCTCCC", "DNA 2": "TGGTGGCTACGACGGGATT"}, "B16": {"name": "CACAUCG (DNA:RNA)", "RNA": "B1 RNA with A25C, G27C, C29U, G30C, C31G", "DNA 1": "CAATCTGAATTCCGGTCTCCC", "DNA 2": "TGGTGGCTACGACGGGATT"}, "B17": {"name": "CUAAGAU (DNA:RNA)", "RNA": "B2 RNA with U25C, C27A, G28A, A29G, G31U", "DNA 1": "CAATCTGAATTCCGGTCTCCC", "DNA 2": "TGGTGGCTACGACGGGATT"}, "B18": {"name": "UUUAUUU (DNA:RNA)", "RNA": "B2 RNA with C27U, G28A, A29U, A30U, G31U", "DNA 1": "CAATCTGAATTCCGGTCTCCC", "DNA 2": "TGGTGGCTACGACGGGATT"}, "B19": {"name": "CAUUGCC (DNA:RNA)", "RNA": "B1 RNA with A25C, G27U, A28U, C29G, G30C", "DNA 1": "CAATCTGAATTCCGGTCTCCC", "DNA 2": "TGGTGGCTACGACGGGATT"}, "B20": {"name": "AAUCCGC (DNA:RNA)", "RNA": "B1 RNA with G27U, A28C", "DNA 1": "CAATCTGAATTCCGGTCTCCC", "DNA 2": "TGGTGGCTACGACGGGATT"}}, "note": "Residue numbers refer to the chain shown, from its start. This is one part of the list.", "data": [{"molecular_target": "T1, RBFOX1 RRM RbFoxmut (Fox-RRM*) (Homo sapiens, UniProt Q9NWB1 109-208, R118D;E147R;N151S;E152T)", "T1 sequence": "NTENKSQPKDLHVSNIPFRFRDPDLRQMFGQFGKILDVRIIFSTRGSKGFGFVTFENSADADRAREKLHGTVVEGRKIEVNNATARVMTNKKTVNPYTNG", "assay": "EMSA; HiTS-Eq, 1 nM pool, 10 min; buffer printed only for the single-RNA assays: 10 mM Tris pH 7.5, 150 mM NaCl, 3.4 mM EDTA, 0.001% NP-40, 30 C", "details": "tags: His6 N-terminal (pET28a); label: 5' 32P", "outline": "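Relative association constants, normalised to the cognate motif, were derived by comparing read counts of each RNA species with those of the control reaction. The RNA sequenced was the free fraction, separated by 8% native PAGE after a 10 min equilibration in 50 µL of 1 nM 5′-radiolabelled RNA (7 randomized nucleotides) with increasing concentrations of purified wild-type or mutant RbFox RRM.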", "values": [{"binder": "B1", "binding signal": "0.0546 KA relative to UGCAUGU"}, {"binder": "B2", "binding signal": "0.097 KA relative to UGCAUGU"}, {"binder": "B3", "binding signal": "0.0746 KA relative to UGCAUGU"}, {"binder": "B4", "binding signal": "0.106 KA relative to UGCAUGU"}, {"binder": "B5", "binding signal": "0.113 KA relative to UGCAUGU"}, {"binder": "B6", "binding signal": "0.0793 KA relative to UGCAUGU"}, {"binder": "B7", "binding signal": "1.24 KA relative to UGCAUGU"}, {"binder": "B8", "binding signal": "0.0668 KA relative to UGCAUGU"}, {"binder": "B9", "binding signal": "0.0637 KA relative to UGCAUGU"}, {"binder": "B10", "binding signal": "0.0705 KA relative to UGCAUGU"}, {"binder": "B11", "binding signal": "0.103 KA relative to UGCAUGU"}, {"binder": "B12", "binding signal": "0.11 KA relative to UGCAUGU"}, {"binder": "B13", "binding signal": "0.0634 KA relative to UGCAUGU"}, {"binder": "B14", "binding signal": "0.0793 KA relative to UGCAUGU"}, {"binder": "B15", "binding signal": "0.0747 KA relative to UGCAUGU"}, {"binder": "B16", "binding signal": "0.108 KA relative to UGCAUGU"}, {"binder": "B17", "binding signal": "0.085 KA relative to UGCAUGU"}, {"binder": "B18", "binding signal": "0.116 KA relative to UGCAUGU"}, {"binder": "B19", "binding signal": "0.374 KA relative to UGCAUGU"}, {"binder": "B20", "binding signal": "0.066 KA relative to UGCAUGU"}]}]}
